Data from the supplement of paper PMC4604168 (melanoma cell lines).
This is one part of the list. Repeats are few or missing, and single values can be far off.

Key:
Test in all cases: cell count relative to DMSO control; melanoma cells; higher = more viable cells
Conditions in all cases: library dose: low library concentration; 72 h
[1] = test system: COLO792
[2] = test system: COLO800
[3] = test system: COLO829
[4] = test system: G361
[5] = test system: IPC-298
[6] = test system: IST-MEL1
[7] = test system: LB2518-MEL
[8] = test system: LOXIMVI
[9] = test system: MEL-HO
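Note: cell number obtained by counting DAPI-stained nuclei in high-throughput microscope images with image analysis software, screen run in 1,536-well plates.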

Compound | cell count [1] [%] | cell count [2] [%] | cell count [3] [%] | cell count [4] [%] | cell count [5] [%] | cell count [6] [%] | cell count [7] [%] | cell count [8] [%] | cell count [9] [%]
COc1cc(Nc2ncc(F)c(Nc3ccc4c(n3)NC(=O)C(C)(C)O4)n2)cc(OC)c1OC [Tamatinib] + Cc1ccc(NC(=O)c2cccc(N(C)C)c2)cc1NC(=O)c1ccc(O)cc1 [ZM336372] (first compound 0.4 µM, partner dose 2 µM) | 60.4 | 78 | 87.1 | 100 | 68.9 | 88.1 | 61.3 | 79.8 | 83.7
C[C@@H]1CCN(C(=O)CC#N)C[C@@H]1N(C)c1ncnc2[nH]ccc12 + O=C(O)c1ccc(-c2c[nH]c3ncc(-c4ccccc4)cc23)cc1C1CCCC1 [GSK650394] (first compound 1 µM, partner dose 0.16 µM) | 91.2 | 62.3 | 107 | 95.6 | 103 | 84.1 | 103 | 76.3 | 88.3
C[C@@H]1CCN(C(=O)CC#N)C[C@@H]1N(C)c1ncnc2[nH]ccc12 + Cn1cncc1[C@@](N)(c1ccc(Cl)cc1)c1ccc2c(c1)c(-c1cccc(Cl)c1)cc(=O)n2C [tipifarnib] (first compound 1 µM, partner dose 0.01 µM) | 84.3 | 112 | 108 | 105 | 90.5 | 93.1 | 97.8 | 92.6 | 110
O=c1[nH]nc(Sc2ncc([N+](=O)[O-])s2)n1-c1ccc2c(c1)OCCO2 + C=CCn1c(=O)c2cnc(Nc3ccc(N4CCN(C)CC4)cc3)nc2n1-c1cccc(C(C)(C)O)n1 [MK1775] (first compound 0.2 µM, partner dose 0.02 µM) | 99.4 | 63.5 | 104 | 88.8 | 98.6 | 98.1 |  | 97.3 | 103
CC1(C)NC(=O)N(c2ccc([N+](=O)[O-])c(C(F)(F)F)c2)C1=O [nilutamide] + NC(=O)Nc1cc(-c2cccc(F)c2)sc1C(=O)N[C@H]1CCCNC1 [AZD7762] (first compound 1 µM, partner dose 0.02 µM) | 88.1 | 79.4 | 118 | 105 | 100 | 111 | 145 | 81.9 | 97.9
O=C(Nc1cccc(Cl)c1)Nc1ncc(CCNc2ncnc3ccsc23)s1 + O=C(O)c1ccc(-c2c[nH]c3ncc(-c4ccccc4)cc23)cc1C1CCCC1 [GSK650394] (first compound 0.0008 µM, partner dose 0.16 µM) | 80 | 101 | 97.1 | 90.8 | 92.9 | 84.8 |  | 106 | 86.2
O=c1[nH]nc(Sc2ncc([N+](=O)[O-])s2)n1-c1ccc2c(c1)OCCO2 + CC(C)CCN1c2nc(Nc3cc(F)c(O)c(F)c3)ncc2N(C)C(=O)C1C [BID1870] (first compound 0.2 µM, partner dose 0.2 µM) | 90.1 | 134 | 103 | 114 | 102 | 106 | 106 | 116 | 97.2
O=c1[nH]nc(Sc2ncc([N+](=O)[O-])s2)n1-c1ccc2c(c1)OCCO2 + Cc1cc([N+](=O)[O-])ccc1NS(=O)(=O)c1cc(Cl)ccc1Cl [FH535] (first compound 0.2 µM, partner dose 1 µM) | 96.9 | 93.7 | 136 | 93.4 | 98.4 | 91 |  | 114 | 94.9
O=C(Nc1cccc(Cl)c1)Nc1ncc(CCNc2ncnc3ccsc23)s1 + NCC(=O)Nc1ccc(-n2nc(C(F)(F)F)cc2-c2ccc3c(ccc4ccccc43)c2)cc1 [OSU03012] (first compound 0.0008 µM, partner dose 1 µM) | 99.9 | 66.5 | 95.5 | 98.4 | 103 | 89.8 | 78.6 | 85.7 | 100
O=c1[nH]nc(Sc2ncc([N+](=O)[O-])s2)n1-c1ccc2c(c1)OCCO2 + CN(NC(=O)CC(=O)NN(C)C(=S)c1ccccc1)C(=S)c1ccccc1 [STA4783] (first compound 0.2 µM, partner dose 0.006 µM) | 94.3 | 39.9 | 87.1 | 95.3 | 94.2 | 83.3 | 69.6 | 73.6 | 92.7
O=c1[nH]nc(Sc2ncc([N+](=O)[O-])s2)n1-c1ccc2c(c1)OCCO2 + CO[C@@H]1[C@H](N(C)C(=O)c2ccccc2)C[C@H]2O[C@]1(C)n1c3ccccc3c3c4c(c5c6ccccc6n2c5c31)C(=O)NC4 [Midostaurin] (first compound 0.2 µM, partner dose 0.08 µM) | 100 | 68.6 | 81.5 | 95.3 | 99.1 | 110 | 96.4 | 112 | 106
O=C(O)c1ccc(-c2c[nH]c3ncc(-c4ccccc4)cc23)cc1C1CCCC1 + CN(NC(=O)CC(=O)NN(C)C(=S)c1ccccc1)C(=S)c1ccccc1 [STA4783] (first compound 0.16 µM, partner dose 0.006 µM) | 67.1 | 68.3 | 52.2 | 66.8 | 97 | 50.2 | 64.4 | 46.6 | 68
O=c1[nH]nc(Sc2ncc([N+](=O)[O-])s2)n1-c1ccc2c(c1)OCCO2 + CCN(CC)CCCCNc1ncc2cc(-c3cc(OC)cc(OC)c3)c(NC(=O)NC(C)(C)C)nc2n1 [PD173074] (first compound 0.2 µM, partner dose 0.1 µM) | 105 | 102 | 85.5 | 93.8 | 106 | 95.9 | 108 | 88.8 | 98.1
COc1cc(Nc2ncc(F)c(Nc3ccc4c(n3)NC(=O)C(C)(C)O4)n2)cc(OC)c1OC [Tamatinib] + O=C(O)c1ccc(-c2c[nH]c3ncc(-c4ccccc4)cc23)cc1C1CCCC1 [GSK650394] (first compound 0.4 µM, partner dose 0.16 µM) | 69.2 | 87.9 | 96.4 | 112 | 77.5 | 89.5 | 95 | 145 | 95
O=c1[nH]nc(Sc2ncc([N+](=O)[O-])s2)n1-c1ccc2c(c1)OCCO2 + O=C(CCCCCCC(=O)Nc1ccccc1)NO [vorinostat] (first compound 0.2 µM, partner dose 0.08 µM) | 113 | 124 | 99.1 | 107 | 109 | 107 | 100 | 100 | 104
CC1(C)NC(=O)N(c2ccc([N+](=O)[O-])c(C(F)(F)F)c2)C1=O [nilutamide] + C=CCn1c(=O)c2cnc(Nc3ccc(N4CCN(C)CC4)cc3)nc2n1-c1cccc(C(C)(C)O)n1 [MK1775] (first compound 1 µM, partner dose 0.02 µM) | 91 | 65 | 83.4 | 88 | 85 | 98.6 | 95 | 83.7 | 94.6
C[C@@H]1CCN(C(=O)CC#N)C[C@@H]1N(C)c1ncnc2[nH]ccc12 + O=C(Nc1cccc(Cl)c1)Nc1ncc(CCNc2ncnc3ccsc23)s1 [SNS314] (first compound 1 µM, partner dose 0.0008 µM) | 98.3 | 76.5 | 110 | 104 | 112 | 106 | 98.8 | 71.9 | 115
COc1cc(Nc2ncc(F)c(Nc3ccc4c(n3)NC(=O)C(C)(C)O4)n2)cc(OC)c1OC [Tamatinib] + CN(C)S(=O)(=O)c1ccc2c(c1)/C(=C/c1cc3c([nH]1)CCCC3)C(=O)N2 [SU6656] (first compound 0.4 µM, partner dose 0.4 µM) | 56.1 | 67.3 | 89.1 | 87.9 | 88.9 | 85.6 | 88 | 95.5 | 96.1
O=c1[nH]nc(Sc2ncc([N+](=O)[O-])s2)n1-c1ccc2c(c1)OCCO2 + COc1ccc2c(c1)CCC1C2CCC2(C)C(NCCCCCCN3C(=O)C=CC3=O)CCC12 [U73122] (first compound 0.2 µM, partner dose 0.4 µM) | 100 | 89.3 | 106 | 85.7 | 98 | 96.8 | 104 | 95.7 | 111
CC1(C)NC(=O)N(c2ccc([N+](=O)[O-])c(C(F)(F)F)c2)C1=O [nilutamide] + CO[C@@H]1[C@H](N(C)C(=O)c2ccccc2)C[C@H]2O[C@]1(C)n1c3ccccc3c3c4c(c5c6ccccc6n2c5c31)C(=O)NC4 [Midostaurin] (first compound 1 µM, partner dose 0.08 µM) | 110 | 106 | 104 | 92 | 94.7 | 97.8 |  | 91.6 | 100
CC1(C)NC(=O)N(c2ccc([N+](=O)[O-])c(C(F)(F)F)c2)C1=O [nilutamide] + Cn1cncc1[C@@](N)(c1ccc(Cl)cc1)c1ccc2c(c1)c(-c1cccc(Cl)c1)cc(=O)n2C [tipifarnib] (first compound 1 µM, partner dose 0.01 µM) | 86.5 | 158 | 76.7 | 77.8 | 86.7 | 92.3 | 84 | 117 | 72.8
CC1(C)NC(=O)N(c2ccc([N+](=O)[O-])c(C(F)(F)F)c2)C1=O [nilutamide] + OCCn1cc(-c2cnc3nnn(Cc4ccc5ncccc5c4)c3n2)cn1 [PF04217903] (first compound 1 µM, partner dose 1 µM) | 94.5 | 69.6 | 91.1 | 87.6 | 101 | 98.1 | 109 | 83.2 | 96.7
COc1cc(Nc2ncc(F)c(Nc3ccc4c(n3)NC(=O)C(C)(C)O4)n2)cc(OC)c1OC [Tamatinib] + CN(NC(=O)CC(=O)NN(C)C(=S)c1ccccc1)C(=S)c1ccccc1 [STA4783] (first compound 0.4 µM, partner dose 0.006 µM) | 44.6 | 53.4 | 62.1 | 82.6 | 76.7 | 79 | 60.5 | 63.7 | 90.7
